Laboratory results: the supplement of paper PMC11876631
Where a chain is given by its changes, count along the chain named. Names and notes keep the numbering of the source. ± gives the standard deviation of the averaged measurements. Laboratory Escherichia coli strains with one amino-acid change in an essential protein, pooled on minimal glucose agar with carbenicillin or gentamicin at twice the control MIC (plus kanamycin and chloramphenicol for the plasmids), 48 h. Fold change of barcode share against drug-free plates; higher = less susceptible. Active = above 20 in both replicates (the paper's putatively resistant). '<' = one read or none on drug, '>' = one read or none on a drug-free plate. Shares are relative, so most strains fall below 1 when a few take over. Listed are strains with at least 15 reads on both drug-free plates, and hits; most hits rest on fewer reference reads. Replicate rank correlation about 0.5. Edits are read from barcodes.

B1: mraY M78D (protein)
chain: MLVWLAEHLVKYYSGFNVFSYLTFRAIVSLLTALFISLWMGPRMIAHLQKLSFGQVVRNDGPESHFSKRGTPTMGGIDILTAIVISVLLWAYPSNPYVWCVLVVLVGYGVIGFVDDYRKVVRKDTKGLIARWKYFWMSVIALGVAFALYLAGKDTPATQLVVPFFKDVMPQLGLFYILLAYFVIVGTGNAVNLTDGLDGLAIMPTVFVAGGFALVAWATGNMNFASYLHIPYLRHAGELVIVCTAIVGAGLGFLWFNTYPAQVFMGDVGSLALGGALGIIAVLLRQEFLLVIMGGVFVVETLSVILQVGSFKLRGQRIFRMAPIHHHYELKGWPEPRVIVRFWIISLMLVLIGLATLKVR
B2: mraY I79A (protein)
chain: B1 chain with D78M, I79A
B3: mraY I79Q (protein)
chain: B1 chain with D78M, I79Q
B4: mraY I79P (protein)
chain: B1 chain with D78M, I79P
B5: mraY V87A (protein)
chain: B1 chain with D78M, V87A
B6: mraY V87Q (protein)
chain: B1 chain with D78M, V87Q
B7: mraY V87D (protein)
chain: B1 chain with D78M, V87D
B8: mraY V162Q (protein)
chain: B1 chain with D78M, V162Q
B9: mraY V162P (protein)
chain: B1 chain with D78M, V162P
B10: mraY I184Q (protein)
chain: B1 chain with D78M, I184Q
B11: mreB V39A (protein)
chain: MLKKFRGMFSNDLSIDLGTANTLIYVKGQGIVLNEPSVAAIRQDRAGSPKSVAAVGHDAKQMLGRTPGNIAAIRPMKDGVIADFFVTEKMLQHFIKQVHSNSFMRPSPRVLVCVPVGATQVERRAIRESAQGAGAREVFLIEEPMAAAIGAGLPVSEATGSMVVDIGGGTTEVAVISLNGVVYSSSVRIGGDRFDEAIINYVRRNYGSLIGEATAERIKHEIGSAYPGDEVREIEVRGRNLAEGVPRGFTLNSNEILEALQEPLTGIVSAVMVALEQCPPELASDISERGMVLTGGGALLRNLDRLLMEETGIPVVVAEDPLTCVARGGGKALEMIDMHGGDLFSEE
B12: mreB F85A (protein)
chain: B11 chain with A39V, F85A
B13: mreB F85Q (protein)
chain: B11 chain with A39V, F85Q

Each protein was assayed against Escherichia coli (laboratory strain) (assay: barcode share on antibiotic plates over drug-free plates; higher = less susceptible). Conditions: antibiotic: carbenicillin; 2× MIC (3.1 µg/mL).
Protocol: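 A pool of E. coli strains, each edited to carry one amino-acid change in an essential protein, was grown for 48 h on minimal glucose agar with or without antibiotic; strain barcodes were sequenced; mean of two replicates.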

Row | Protein | fold change of barcode share
1 | B1 | 1.2 ± 1.4
2 | B2 | 0.32 ± 0.14
3 | B3 | 0.204 ± 0.049
4 | B4 | 0.269 ± 0.2
5 | B5 | 0.471 ± 0.22
6 | B6 | 0.298 ± 0.18
7 | B7 | 0.7116 ± 0.00083
8 | B8 | 0.377 ± 0.13
9 | B9 | 0.166 ± 0.021
10 | B10 | 0.216 ± 0.067
11 | B11 | 0.151 ± 0.0027
12 | B12 | 0.26 ± 0.022
13 | B13 | 0.42 ± 0.0056

Same assay, conditions: antibiotic: gentamicin; 2× MIC (MIC 0.45 µg/mL)

Row | Protein | fold change of barcode share
14 | B1 | < 0.0195
15 | B2 | < 0.00406
16 | B3 | < 0.00639
17 | B4 | < 0.00626
18 | B5 | 0.00412 ± 0.0019
19 | B6 | 0.0113 ± 0.0046
20 | B7 | < 0.00671
21 | B8 | 0.038 ± 0.032
22 | B9 | 0.0391 ± 0.046
23 | B10 | 0.00985 ± 0.011
24 | B11 | 0.477 ± 0.67
25 | B12 | < 0.0087
26 | B13 | < 0.00495
